# Experimental data published in the supplement of paper PMC11417369.
# This is one part of the list.
# Tested on: PF3D7_0420300 AP2 domain 1 (GST-tagged)
# Assay: gcPBM binding intensity (ln(normalized median fluorescence intensity)); higher = stronger DNA binding
# In short: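 An Agilent 4 × 180k array of primer-extended double-stranded 36-bp intergenic genomic probes, with negative controls, was incubated for 1 h with GST-tagged P. falciparum DNA-binding domains expressed in E. coli. Alexa488 anti-GST antibody detected bound protein, scanned at 488 nm. Binding intensity is the highest Masliner-normalised natural-log median intensity across replicate spots of either probe orientation.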
row,Sequence,gcPBM binding intensity (ln)
1,TAATTTTTTAAATTTAAACACACATTTTGTATATGT [CACACA_site8479],9.28
2,TATATATATATATATTGTACGAACCTTTTTTTTTTT [XGTACX_site4169],9.25
3,TGATACGTATTTATTTCACACACGTTAAAAAAATAA [CACACA_site3914],9.08
4,CTAACACTAATTTTTTGTACACAATATGTAAATAAA [XGTACX_site6424],9.1
5,ATTTTTACATAGGAAGCATGCATATTTTAAAAATAA [TGCATGCA_site1046],9.01
6,TTATTTCTGAATATTTTTTTTTTTTCTTCTTTTTTA [CACACA_negctrl_site815],9.04
7,CATGTGTTCTATATTTATGTCTAACTTTTTAATTAA [CACACA_negctrl_site904],9.43
8,TAAATGTCTGTTAATGCACACGATATGTCTATATAT [CACACA_site2352],9.43
9,CTTTCTATATAAAATCGTACATATATAATATTATAT [XGTACX_site5807],9.08
10,TATATTAAGAAACACACACACATATATATATATATA [CACACA_site1609],9.63
11,TTCCTATTTCCTATGTGTACTTATAAATAAGTGTCT [XGTACX_site3725],9.38
12,GAAATTATAAATTGGACACACACATAAAAAATATGT [CACACA_site7957],9.78
13,TCCGCATGTACATGGGTGCACATAACACCCATTTAA [GTGCAC_site9881],9.11
14,GTAATTTTATATGGTTGTACATATATATATATATAT [XGTACX_site6659],9.32
15,TTATACCTGATTTAGGTGCTATAAATTTGTGTTTTT,9.31
16,ATATATATATATATGTGTACTTATATATTTAAAAAA [XGTACX_site1761],9.07
17,ATATATATATATATATATATTTATATGTGAAAACCC [CACACA_negctrl_site845],9.28
18,CGCATAAAGACAAGAACACACATATATATTGTAGTA [CACACA_site5938],9.38
19,CAACAACAAAAAAAAAAATAATAATAATAAAAAATA [TGCATGCA_negctrl_site271],9.1
20,AGAAAAAAATAATGTACACACACATATATGTTTATA [CACACA_site7946],9.64
21,ATATACAAAGGATTAACACACATATTATTATATATA [CACACA_site1880],9.57
22,TATTTTTTAAAAAAATGTCATAAAATTTCTTTTTTC [XGTACX_negctrl_site271],8.78

row,Sequence,gcPBM binding intensity (ln)
1,AATACAATATAAAGGTGTACATATATATATATATAT [XGTACX_site68],9.47
2,ATGTAGATAGATAGGGTGCTAAAAATAAGATTTATA [GTGCAC_site9602],9.2
3,AAAAAAAAAAAAAAAACACACACAACACCCATACCT [CACACA_site9208],9.73
4,TACAAAATATTTTACACACACATATAAATACCTATA [CACACA_site7272],9.83
5,TATATATATATATGAGTGCATATGTGTAATATAAAA,9.38
6,TTATGTTCTTAATGCACACTTATAAGTATCTTATAA [CACACA_site1394],9.25
7,TATATAATTATTTGATGTACACTACAATGTATTTGT [XGTACX_site7991],9.21
8,TATAAAATATATATCTGTACGTATTTTATTTTTTAT [XGTACX_site6257],9.35
9,TATAAGCAAAGACACACACACATATAAATATAAATA [CACACA_site7740],10.1
10,TTTTTTTTTTTTTTGTCACACACCTTCATAAGAAAA [CACACA_site1166],9.09
11,CACACCATATAATATATATATATGTATATATTTATA [CACACA_negctrl_site397],9.22
12,ACACAAAAATAAAAATGTACAAATTAAAAAAAATGA [XGTACX_site2083],9.58
13,TAAAAGGAACAAAATTGTACTTAAAAGACAAAGTTA [XGTACX_site7661],9.13
14,ATATATATTAATAGTTGTACTATTATAATATTACAA [XGTACX_site1213],8.96
15,ATCCTGAACAGAATATGTATAAACAGAAGGAAACAA [CACACA_negctrl_site1805],9.45
16,TTTGTTCTATGGAGTTTAAAATGTAATATATATTAA [GTGCAC_negctrl_site151],9.03
17,CTTTGTAGTTGGTCCACACACATATATGGAAGAATA [CACACA_site1280],9.39
18,ATATATATATATATATATATATATATATTTATATAT [GTGCAC_negctrl_site180],8.92
19,TAATAATAGAGACACACACACATTTTTAATAATACA [CACACA_site6691],9.83
20,TTAACATTTTAAAAATGTACATTTATATACATAAAT [XGTACX_site922],8.9
21,AGAAAAATTCTAAGAACATGCAAAAAAATAAAAAAA [TGCATGCA_site293],9.35
22,TCTAATGTAATGCATACACACAACTATCCATCAAAA [CACACA_site534],9.43

row,Sequence,gcPBM binding intensity (ln)
1,AAAAAATAAATAAATATACACACCATATATATATTT [CACACA_site2854],9.6
2,TTTTTTTTTTTAAATAGTACACATATATATATATAT [XGTACX_site6983],8.93
3,TATACCTATAGACACACACACATAAATAGATATATA [CACACA_site6748],10
4,TACACGCATAGACACACACACACACGCATATAAATA [CACACA_site6446],10.3
5,AAAAAAAAAAAAAAAAGTACAAAAAAAAAAAAAAAA [XGTACX_site4549],8.72
6,TTTTATTTTTCTAGTAGTACTTCTTTTTATAATATA [XGTACX_site1181],9.28
7,AGTTTACACCTTGTGAGTACATACATACATATATAT [XGTACX_site8793],9.3
8,ACTTTTTTTTTTTTTTTAGATTACATAAATATAAAT [CACACA_negctrl_site139],9.2
9,TTATAAATTTAAAAAGTGCATAATAATAACAAAAAG,9.45
10,TATGTATATTTAAATGCATGTGATTATTTTTGACTT [TGCATGCA_site568],9.09
11,AAAAAAAAAAAAAAAACACACATATAGATTATTGTA [CACACA_site7797],9.34
12,TTTTAATTTATCGACACACGCATGAATAGAAATTAG [CACACA_site3361],9.11
13,TATTTTTATTTTCCTTCACACATTTTTTATATTTTT [CACACA_site5830],9.77
14,TTATAATTTAATAAATGTACATAAATAATATACATA [XGTACX_site7271],8.92
15,AACACAATAAAAATTAAAAATGTTAAGTAAATATAA [GTGCAC_negctrl_site60],9.41
16,AGACAATATCTTATTTGTACATATGTATTCCTCATA [XGTACX_site5757],9.33
17,AATTATTCATAAAATGCATGTACATGGTTTAATATT [TGCATGCA_site87],9.3
18,TCGTAAACTTTATGCACACACATATACATATTTCAT [CACACA_site739],9.87
19,ATACATGTTTTATGTGCACACAAAGTTGTTATGAGG [CACACA_site4032],9.77
20,ATAATACACAAGCACACACACACACGGATATTTATA [CACACA_site6714],10.3
21,ATAATTATATTTTATTCACACATCGTTATATAGTAA [CACACA_site4743],9.31
22,ATTATGGATACATAAACACACATATATATAAAAAAA [CACACA_site4303],9.66

row,Sequence,gcPBM binding intensity (ln)
1,ACATGATAAATAGTCACACATAAATATAATATATAT [CACACA_site5207],9.52
2,CTAATATATGTATGCACACACAATATATACATATTT [CACACA_site3360],9.59
3,GTTATACACATATATACACACATATGTAAATATATA [CACACA_site9080],9.49
4,ATATTACAAATATAATGTACAAAATATAAATATGCA [XGTACX_site8106],9.42
5,GTCCTTACTAATTAATTTTAGGCCATATAGTTTGTC [XGTACX_negctrl_site199],9.38
6,AAATGCGTATATAACGCATGTATAAGAACATTTTTT [TGCATGCA_site225],9.12
7,TTATAATCTATACATATATATGTATGTATGTCTCAA [CACACA_negctrl_site1702],9.24
8,ACATCATTTTTATGTACACACACATATACGTTGAAT [CACACA_site5095],9.98
9,GAAGTATTATTAAAGCTGCACTTTTCTAAAATAAAC [GTGCAC_site9429],9.01
10,CATTAATTTAATAAATGTACATAAAATATATATTAT [XGTACX_site8085],9.16
11,TAAAATTTACAACACTGTACTTGAATTTATCTTTAA [XGTACX_site241],9.16
12,GCAGTATGCGATCAGTGTACGAGTTATTTTATAAAA [XGTACX_site4764],8.92
13,ATGTTATATTTTTTTATACACACTGGGATATATAAA [CACACA_site6244],9.41
14,TTCATTGTGTTAACGGTGCATATATTTTTTCACCGT [GTGCAC_site9464],9.27
15,TAAAAATATAAAAAGTGTACAATATATAAATTAATA [XGTACX_site1606],9.43
16,ATATTAAAAAAATATGCATGCAAATATTATTTTGTA [TGCATGCA_site191],8.99
17,AATCAAATTTTCAAGTCGCACCAAACAAAAAAATGA [CACACA_negctrl_site1397],9.23
18,TATTTAATTAATATAATATTAAACGGAAAAGATAAA [TGCATGCA_negctrl_site148],9.27
19,TTTTTCTTTTTTTTTTTAATAATATATAACAAATTT [CACACA_negctrl_site1724],9.01
20,TGCCATATATATATTAAATACATAATAATGAGCCTA [GTGCAC_negctrl_site10],9.12
21,AGTCATAAATTTATTTGTACATATAATATATATATA [XGTACX_site8489],9.2
22,AAAATATATAATTTTTAACACACAAAAAAAAAAAAA [CACACA_site9192],9.22
